Screen size: about 1,100 compounds; about 160 (15%) were called active. Inconclusive results, whose numbers are uncertain, are shown with a selection of clear calls. The call rests on the fitted dose curve; in most records, active means well fitted inhibition curve with a large enough effect; inconclusive means small, poorly fitted or top-dose-only effect; inactive means no such curve, though single readings can be large or run the other way. A potency beside an inconclusive call is a rough fit, not a confirmed value.
Each molecule was assayed against ATP-dependent DNA helicase Q1 (Homo sapiens) (UniProt P46063) (assay: Confirmation qHTS Assay for Inhibitors of RecQ-Like Dna Helicase 1 (RECQ1) - Round 2 Cherry Picks). Details: recombinant RECQ1 DNA unwinding, red fluorescence; series mostly up to 119 µM.
Method in brief: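 RECQ1T1 (50 nM) preincubated 15 min with compound, then 200 nM TAMRA/BHQ-2 forked duplex and 2 mM ATP added (final). Buffer pH 8.0 with 2.5 ug/ml poly(dI-dC); fluorescence increase read twice, 2 hours apart, at room temperature.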
Further: nearly all actives have a fitted effect of over 50% in size.
Potency means the concentration at half of the fitted maximal effect; tags describe the fitted curve by direction and shape.

Sequence of UniProt P46063 (P46063 whole entry, looked up): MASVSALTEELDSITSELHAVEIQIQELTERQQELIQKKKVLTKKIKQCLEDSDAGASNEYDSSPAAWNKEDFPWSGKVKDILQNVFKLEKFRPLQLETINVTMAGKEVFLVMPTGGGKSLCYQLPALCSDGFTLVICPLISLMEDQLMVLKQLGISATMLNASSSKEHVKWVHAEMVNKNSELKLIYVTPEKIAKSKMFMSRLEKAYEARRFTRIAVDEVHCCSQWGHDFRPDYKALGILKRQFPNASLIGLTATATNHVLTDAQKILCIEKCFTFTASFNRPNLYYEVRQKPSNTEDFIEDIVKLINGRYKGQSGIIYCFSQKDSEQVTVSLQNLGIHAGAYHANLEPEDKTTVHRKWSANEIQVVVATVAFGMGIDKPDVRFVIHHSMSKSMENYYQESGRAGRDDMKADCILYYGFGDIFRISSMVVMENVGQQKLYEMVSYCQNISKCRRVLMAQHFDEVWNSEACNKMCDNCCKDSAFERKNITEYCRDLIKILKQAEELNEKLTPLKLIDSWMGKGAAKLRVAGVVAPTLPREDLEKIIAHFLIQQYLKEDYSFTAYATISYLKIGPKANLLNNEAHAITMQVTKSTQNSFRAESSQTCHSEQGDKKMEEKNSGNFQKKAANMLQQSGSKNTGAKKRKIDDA

SMILES | Potency
Nc1cc(=O)[nH]c(SCC(=O)Nc2ccc3c(c2)CCC3)n1 | inactive
O=C(CNS(=O)(=O)c1c(Cl)cccc1Cl)OCC(=O)c1ccc[nH]1 | inactive
COc1ccc(OC)c(-c2c3cc(O)c(=O)cc-3oc3cc(O)c(O)cc23)c1 | active: 39.8 µM
COc1ccc(OC)c(Nc2nc(NCCCN(C)C)nc(N)c2[N+](=O)[O-])c1 | inconclusive: 56.2 µM [inhibitor, partial curve]
CCCOc1ccc(Cc2nn3c(=O)/c(=C/c4ccco4)sc3nc2=O)cc1 | inconclusive: 50.1 µM [inhibitor, partial curve, poor fit]
CCn1c(=O)c(-c2cc(=O)[nH][nH]2)c(O)c2ccccc21 | inactive
Cc1cc(C)c(S(=O)(=O)NCC23C=CC(O2)C2C(=O)N(c4ccccc4)C(=O)C23)c(C)c1 (stereo not drawn) | inactive
COc1ccc(CCn2c(N)c(C(=O)NCc3ccco3)c3nc4ccccc4nc32)cc1OC | inactive
O=C(O)c1c2c(nc3ccc(S(=O)(=O)N4CCC(C(=O)N5CCCCC5)CC4)cc13)CCCC2 | inactive
Oc1ccc(N2CCN(c3nc(-c4cccs4)nc4ccccc34)CC2)cc1 | inconclusive: 20 µM [inhibitor, partial curve, poor fit]
CCOC(=O)C(Oc1ccc2c(-c3ccccc3)cc(=O)oc2c1)c1ccccc1 (stereo not drawn) | inactive
COc1ccc(-n2c(N)c(C(=O)NCC3CCCO3)c3nc4ccccc4nc32)c(OC)c1 (stereo not drawn) | inactive
C=CCn1c(COc2ccc(F)cc2)nnc1SCC(=O)NC(=O)NCc1ccco1 | inconclusive: 50.1 µM [inhibitor, partial curve]
CC(=O)NC(=S)Nc1ccc(NC(=S)NC(=O)/C=C/c2ccco2)cc1 | inactive
O=C(CCc1nc2ccccc2s1)NC1CCOC1=O (stereo not drawn) | inconclusive: 89.1 µM [inhibitor, single point]
CC1=Nc2ccccc2/C1=C/c1nc(-c2ccc(C)s2)oc1O | inconclusive: 63.1 µM [inhibitor, partial curve, poor fit]
CCCSC1=N/C(=C\c2ccc([N+](=O)[O-])o2)C(=O)S1 | inconclusive: 56.2 µM [inhibitor, partial curve]
CS(=O)(=O)N1CCC2(CCCN(c3cccc(-c4ccccc4)c3)C2)CC1 | inconclusive: 56.2 µM [inhibitor, partial curve, poor fit]
CCNc1ncc2nc(-c3ccc(F)cc3)c(=O)n(CCc3ccccc3)c2n1 | active: 79.4 µM
O=C(COc1ccc2ccccc2c1)Nc1cccc(C(=O)Nc2ccccc2C(=O)O)c1 | inconclusive: 79.4 µM [inhibitor, partial curve, poor fit]
Cn1c(N)c(C(=O)COC(=O)c2cc(-c3ccco3)nc3ccccc23)c(=O)n(C)c1=O | inconclusive: 39.8 µM [inhibitor, partial curve, poor fit]
Cc1onc(-c2ccccc2Cl)c1C(=O)NCc1ccco1 | inactive
Cc1cc(OCC(F)(F)C(F)(F)C(F)(F)C(F)(F)C(F)(F)C(F)F)nc(N)n1 | inactive

SMILES | Potency
Cc1ccnc(NS(=O)(=O)c2ccc(NC(=O)Cc3cccs3)cc2)n1 | inconclusive: 31.6 µM [inhibitor, partial curve]
O=C1NC(=Nc2ccc(O)cc2)S/C1=C\C=C\c1ccco1 | inconclusive: 50.1 µM [inhibitor, partial curve]
Cc1cc(C)c(Nc2cc(S(=O)(=O)O)c(N)c3c2C(=O)c2ccccc2C3=O)c(C)c1 | active: 31.6 µM
CCCCn1c(Cl)nc2c1c(=O)n(C)c(=O)n2C | inactive
Cc1ccc(/C(C#N)=C\c2ccc(N3CCOCC3)o2)cc1 | inconclusive: 31.6 µM [inhibitor, partial curve, poor fit]
O=C1CC(c2ccco2)CC(O)=C1C=Nc1cc(Cl)ccc1O (stereo not drawn) | inconclusive: 12.6 µM [inhibitor, partial curve]
CCc1nnc(NS(=O)(=O)c2ccc(NC(=S)NC(=O)/C=C/c3ccc(C(C)C)cc3)cc2)s1 | inconclusive: 44.7 µM [inhibitor, partial curve, poor fit]
Cc1nnc2ccc(-c3ccc(NC(=O)Cc4cccs4)cc3)nn12 | inactive
CC(=O)Nc1ccc(S(=O)(=O)NCc2ccc3c(c2)cc(C)n3C)cc1 | active: 50.1 µM
COc1cc(C(=O)NCc2nnc(SCC(=O)Nc3nc4ccc(C)cc4s3)o2)cc(OC)c1OC | inactive
CCOc1ccc(C(=O)Nc2cccc(-c3cc4ccccc4oc3=O)c2)cc1[N+](=O)[O-] | inconclusive: 1.26 µM [inhibitor, full curve, poor fit]
CCn1c(SCC(=O)O)nc2sc3c(c2c1=O)CCC3 | inconclusive: 14.1 µM [inhibitor, full curve]
O=C(Cn1ncc(Cl)c(Cl)c1=O)N1CCN(Cc2ccccc2)CC1 | inactive
O=C(c1cc(C(=O)c2ccco2)cc(C(=O)c2ccco2)c1)c1ccco1 | inactive
CCOc1ccc(/C=C/C(=O)c2cc(Br)ccc(=O)c2O)cc1 | inconclusive: 39.8 µM [inhibitor, full curve]
CN1/C(=C\C(=O)COC(=O)CNC(=O)c2ccc3ccccc3c2)C(C)(C)c2ccccc21 | active: 56.2 µM
O=C1CC(=O)N(Cc2ccco2)C(=O)N1 | inconclusive: 15.8 µM [inhibitor, full curve]
CS(=O)(=O)N(CC(=O)Nc1ccc(CC#N)cc1)c1ccc(C23CC4CC(CC(C4)C2)C3)cc1 | inconclusive: 20 µM [inhibitor, full curve, poor fit]
O=C(NCc1ccco1)c1c2c(nc3ccccc13)CCC2 | inconclusive: 63.1 µM [inhibitor, partial curve, poor fit]
COc1cc(N(C)C)cc(CN(C)CCc2ccc([N+](=O)[O-])cc2)c1O | active: 50.1 µM
CN(c1ccccc1)c1ccc(/C=C(\CCC(=O)O)c2nc3ccccc3s2)cc1[N+](=O)[O-] | active: 12.6 µM
Cc1cc(C)cc(OCC(=O)Nc2nonc2NC(=O)COc2cc(C)cc(C)c2)c1 | inactive
Cc1onc(-c2c(F)cccc2Cl)c1C(=O)OCC(=O)c1c[nH]c2ccccc12 | inactive

SMILES | Potency
OC(COc1ccc(Cl)cc1)CN1CCN(c2cccc(Cl)c2)CC1 (stereo not drawn) | inconclusive: 25.1 µM [inhibitor, partial curve, poor fit]
Cc1ccc(C(c2ccc(C)o2)c2cccc([N+](=O)[O-])c2O)o1 | inconclusive: 50.1 µM [inhibitor, partial curve, poor fit]
O=C(Nc1ccc(NC(=O)c2cccs2)cc1)c1ccc(Br)o1 | inconclusive: 56.2 µM [inhibitor, partial curve]
Cc1ccc(S(=O)(=O)/N=C2/C=C(Sc3ncn[nH]3)C(=O)c3ccccc32)cc1 | inconclusive: 35.5 µM [inhibitor, partial curve]
COC(=O)c1c(C(=O)OC)c2cccc3cc(-c4ccccc4)c4ccc1c4n32 | inconclusive: 39.8 µM [inhibitor, partial curve, poor fit]
Cc1cc(/C=C\c2nc(O)c([N+](=O)[O-])c(=O)[nH]2)c(C)n1-c1ccccc1 | inconclusive: 39.8 µM [inhibitor, partial curve]
O=C(c1ccc(OCCN2CCCCC2)cc1)c1c(-c2ccc(O)cc2)sc2cc(O)ccc12 | inactive
Cc1ccc(N=C2NC(=O)/C(=C/C=C/c3ccco3)S2)cc1C | inconclusive: 50.1 µM [inhibitor, partial curve]
Cc1ccccc1N=C/C=C1\N(C)c2ccccc2C1(C)C | inactive
CC(=O)Nc1ccc2c(COC(=O)CC3Sc4ccccc4NC3=O)cc(=O)oc2c1 (stereo not drawn) | inconclusive: 50.1 µM [inhibitor, partial curve]
Cc1c(Cl)cccc1NS(=O)(=O)c1ccc2c(c1)C1C=CCC1C(c1ccc(C(=O)O)cc1)N2 (stereo not drawn) | inconclusive: 25.1 µM [inhibitor, full curve, poor fit]
Nc1c(N2CCCC2)cc(Cl)c2nonc12 | inconclusive: 50.1 µM [inhibitor, partial curve, poor fit]
CC(C)[C@H](NS(=O)(=O)c1ccc2c(c1)OCCO2)C(=O)OCC(=O)Nc1cc(Cl)ccc1Cl | inactive
O=C(O)Cc1ccc(C(=O)CSc2ccccc2)s1 | inactive
O=C(O)CCc1ccc(-c2ccc(Br)cc2)n1CC(=O)O | inconclusive: 15.8 µM [inhibitor, full curve, poor fit]
O=C(Nc1nc(-c2ccco2)c(-c2ccco2)s1)C1CC(=O)N(c2ccc3c(c2)OCCO3)C1 (stereo not drawn) | inconclusive: 22.4 µM [inhibitor, partial curve]
CCN1CCN(C(=O)c2sc3ncnc(N4CCc5ccccc5C4)c3c2C)CC1 | inactive
COc1ccc(-n2c(O)c(/C=N/NS(=O)(=O)c3ccc(C)cc3)c3ccccc3c2=O)cc1OC | inconclusive: 56.2 µM [inhibitor, partial curve]
COC/C=C/C1=CC2=CC(=O)C(C)(OC(=O)C3CCCC3)C(=O)C2=CO1 (stereo not drawn) | inconclusive: 79.4 µM [inhibitor, partial curve]
O=C(O)c1cc(-c2ccco2)nc2ccc(Br)cc12 | inconclusive: 56.2 µM [inhibitor, partial curve]
COC(=O)C1(Cc2ccc(O)cc2)OC(=O)C(O)=C1c1ccc(O)cc1 (stereo not drawn) | active: 20 µM
Cc1ccc(NC(=O)COC(=O)CNC(=O)c2cccc([N+](=O)[O-])c2)cc1S(=O)(=O)N1CCCCCC1 | inactive
